The molecules below were run against LRRK2 (G2019S mutation, GST-LRRK2 (amino acids 970-2527)) (Homo sapiens, UniProt Q5S007, G2019S) (assay: LRRK2 Km ATP LanthaScreen Assay). Conditions: IC50 (nM), mean IC50 of several tests, fluorescein LRRKtide substrate, TR-FRET.
Work on CC1(Oc2ccc3[nH]nc(-c4cc(N5CCOCC5)ncn4)c3n2)CC1 [Example O1] yielded an IC50 of 313 nM.
CC1(Oc2cc3c(-c4cc(N5CCOCC5)ncn4)n[nH]c3cn2)CC1 [Example P1] showed an IC50 of 2.1 nM.
Molecule C[C@@H]1CN(c2cc(-c3n[nH]c4cnc(OC5(C)CC5)cc34)ncn2)C[C@H](C)O1 [Example P2] has an IC50 of 2.1 nM.
With CC(C)Oc1cc2c(-c3cc(N4CCN(S(C)(=O)=O)CC4)ncn3)n[nH]c2cn1 [Example Q1] the IC50 was 54.4 nM.
CC(C)Oc1cc2c(-c3cc(N4CCN(C5CC5)CC4)ncn3)n[nH]c2cn1 [Example Q2] gave an IC50 of 29 nM.
For CC1(Oc2cc3c(-c4ccnc(N5CCOCC5)c4)n[nH]c3cn2)CC1 [Example R1], the IC50 was 1.56 nM.
In the case of CC(C)Nc1cc2c(-c3ccnc(N4CCOCC4)c3)n[nH]c2cn1 [Example S1], the IC50 is reported as 81 nM.
Molecule c1cc(-c2n[nH]c3cnc(N4CCCC4)cc23)cc(N2CCOCC2)n1 [Example S2] has an IC50 of 272 nM.
In the case of CC1CCCN1c1cc2c(-c3ccnc(N4CCOCC4)c3)n[nH]c2cn1 (centres unmarked) [Example S3], the IC50 is reported as 121 nM.
CC(C)Oc1cc2c(-c3ccnc(N4CCCC4=O)c3)n[nH]c2cn1 [Example T1] gave an IC50 of 87 nM.
CC(C)Oc1cc2c(-c3ccnc(N4CCOC4=O)c3)n[nH]c2cn1 [Example T2] gave an IC50 of 102 nM.
CC(C)Oc1cc2c(-c3cc(N4CCOCC4)ncn3)n[nH]c2cn1 [Example U1] gave an IC50 of 76 nM.
With CC(C)Oc1cc2c(-c3cc(N4CC5CCC(C4)O5)ncn3)n[nH]c2cn1 [Example U2] the IC50 was 194 nM.
Work on CC(C)Oc1cc2c(-c3cc(N4CCN(C)C(=O)C4)ncn3)n[nH]c2cn1 [Example U3] yielded an IC50 of 58.6 nM.
Cn1cc(-c2ncc3[nH]nc(-c4ccnc(N5CCOCC5)c4)c3n2)cn1 [Example U4] gave an IC50 of 27.7 nM.
In the case of CC(C)Oc1cc2c(-c3ccnc(N4CCOCC4)c3)n[nH]c2cn1 [Example V1], the IC50 is reported as 15.5 nM.
Clc1cc2c(-c3ccnc(N4CCOCC4)c3)n[nH]c2cn1 [Example W1] was tested, and the IC50 was 58 nM.
For c1cc2c(-c3ccnc(N4CCOCC4)c3)n[nH]c2cn1 [Example X1], the IC50 was 42 nM.
c1cnc2[nH]nc(-c3ccnc(N4CCOCC4)c3)c2c1 [Example X2] showed an IC50 of 220 nM.
For c1cnc2c(-c3ccnc(N4CCOCC4)c3)n[nH]c2c1 [Example X3], the IC50 was 73 nM.
For Clc1cc2c(-c3ccnc(-n4ccnc4)c3)n[nH]c2cn1 [Example Z1], the IC50 was 1080 nM.

Same assay, conditions: LRRK2 IC50 (nM), mean IC50 of several tests, fluorescein LRRKtide substrate, TR-FRET
Work on CCCS(=O)(=O)N1CCN(c2cc(-c3n[nH]c4cnc(OC(C)C)cc34)ccn2)CC1 [Example K2] yielded an IC50 of 25 nM.
CC(C)Oc1cc2c(-c3ccnc(N4CCN(S(C)(=O)=O)CC4)c3)n[nH]c2cn1 [Example K3] showed an IC50 of 24 nM.
CC(C)Oc1cc2c(-c3ccnc(N4CCN(S(=O)(=O)c5ccccc5)CC4)c3)n[nH]c2cn1 [Example K4] gave an IC50 of 258 nM.
Molecule CC(C)Oc1cc2c(-c3ccnc(N4CCN(S(=O)(=O)C(C)C)CC4)c3)n[nH]c2cn1 [Example K5] has an IC50 of 34 nM.
For Cc1oncc1S(=O)(=O)N1CCN(c2cc(-c3n[nH]c4cnc(OC(C)C)cc34)ccn2)CC1 [Example K6], the IC50 was 34 nM.
CC(C)Oc1cc2c(-c3ccnc(N4CCN(S(=O)(=O)c5cccnc5)CC4)c3)n[nH]c2cn1 [Example K7] showed an IC50 of 95 nM.
For CC(C)Oc1cc2c(-c3ccnc(N4CCN(S(=O)(=O)Cc5ccccn5)CC4)c3)n[nH]c2cn1 [Example K8], the IC50 was 32 nM.
For CC(C)Oc1cc2c(-c3ccnc(N4CCN(S(=O)(=O)Cc5ccncc5)CC4)c3)n[nH]c2cn1 [Example K9], the IC50 was 40 nM.
CC(C)Oc1cc2c(-c3ccnc(N4CCN(S(=O)(=O)Cc5cccnc5)CC4)c3)n[nH]c2cn1 [Example K10] gave an IC50 of 43 nM.
CC(C)Oc1cc2c(-c3ccnc(N4CCN(S(=O)(=O)C(F)F)CC4)c3)n[nH]c2cn1 [Example K11] gave an IC50 of 152 nM.
CC(C)Oc1cc2c(-c3ccnc(N4CCN(S(=O)(=O)C5CC5)CC4)c3)n[nH]c2cn1 [Example K12] was tested, and the IC50 was 45 nM.
COc1cnc(C(=O)N2CCN(c3cc(-c4n[nH]c5cnc(OC(C)C)cc45)ccn3)CC2)cn1 [Example L2] showed an IC50 of 45 nM.
COCC(=O)N1CCN(c2cc(-c3n[nH]c4cnc(OC(C)C)cc34)ccn2)CC1 [Example L3] was tested, and the IC50 was 65 nM.
CC(C)Oc1cc2c(-c3ccnc(N4CCN(C(=O)c5ccccn5)CC4)c3)n[nH]c2cn1 [Example L4] showed an IC50 of 57 nM.
In the case of CC(C)Oc1cc2c(-c3ccnc(N4CCN(C(=O)C(F)F)CC4)c3)n[nH]c2cn1 [Example L5], the IC50 is reported as 85.9 nM.
In the case of CC(C)Oc1cc2c(-c3ccnc(N4CCN(C(=O)C5(C)COC5)CC4)c3)n[nH]c2cn1 [Example L6], the IC50 is reported as 114 nM.
Work on Cc1ccn(CC(=O)N2CCN(c3cc(-c4n[nH]c5cnc(OC(C)C)cc45)ccn3)CC2)n1 [Example L7] yielded an IC50 of 61.4 nM.
In the case of CC(C)Oc1cc2c(-c3ccnc(N4CCN(C(=O)CN5CCOC5=O)CC4)c3)n[nH]c2cn1 [Example L8], the IC50 is reported as 66.1 nM.
Molecule CC(C)Oc1cc2c(-c3ccnc(N4CCN(C(=O)C5COCCO5)CC4)c3)n[nH]c2cn1 (centres unmarked) [Example L9] has an IC50 of 76.3 nM.
In the case of CC(C)Oc1cc2c(-c3ccnc(N4CCN(C(=O)c5cnco5)CC4)c3)n[nH]c2cn1 [Example L10], the IC50 is reported as 63.4 nM.
With CC(C)Oc1cc2c(-c3ccnc(N4CCN(C(=O)C5CCCN5C)CC4)c3)n[nH]c2cn1 (centres unmarked) [Example L11] the IC50 was 42.5 nM.
CC(C)CCN1CCN(c2cc(-c3n[nH]c4cnc(OC(C)C)cc34)ccn2)CC1 [Example M1] showed an IC50 of 111 nM.
Work on CC(C)CN1CCN(c2cc(-c3n[nH]c4cnc(OC(C)C)cc34)ccn2)CC1 [Example M2] yielded an IC50 of 65 nM.
Work on CCC(C)CN1CCN(c2cc(-c3n[nH]c4cnc(OC(C)C)cc34)ccn2)CC1 (centres unmarked) [Example M3] yielded an IC50 of 238 nM.
Work on CC(C)Oc1cc2c(-c3ccnc(N4CCN(Cc5ccncc5)CC4)c3)n[nH]c2cn1 [Example M4] yielded an IC50 of 26 nM.
With CC(C)Oc1cc2c(-c3ccnc(N4CCN(Cc5cccc(C#N)c5)CC4)c3)n[nH]c2cn1 [Example M5] the IC50 was 88 nM.
CC(C)Oc1cc2c(-c3ccnc(N4CCN(CC5CCOC5)CC4)c3)n[nH]c2cn1 (centres unmarked) [Example M6] gave an IC50 of 30 nM.
CC(C)Oc1cc2c(-c3ccnc(N4CCN(Cc5cnn6ccccc56)CC4)c3)n[nH]c2cn1 [Example M7] gave an IC50 of 27 nM.
COC1CC(CN2CCN(c3cc(-c4n[nH]c5cnc(OC(C)C)cc45)ccn3)CC2)C1 (centres unmarked) [Example M8] gave an IC50 of 30 nM.
Work on CC(C)Oc1cc2c(-c3cc(N4CCC(O)CC4)ncn3)n[nH]c2cn1 [Example N1] yielded an IC50 of 43 nM.
CC(C)Oc1cc2c(-c3cc(N4CCCCC4)ncn3)n[nH]c2cn1 [Example N3] gave an IC50 of 32 nM.
CC(C)Oc1cc2c(-c3cc(N4CCC4)ncn3)n[nH]c2cn1 [Example N4] gave an IC50 of 69 nM.
In the case of CC(C)Oc1cc2c(-c3cc(N4CCN(C)CC4)ncn3)n[nH]c2cn1 [Example N5], the IC50 is reported as 61 nM.
With CC(C)Oc1cc2c(-c3cc(N4C[C@@H](C)O[C@@H](C)C4)ncn3)n[nH]c2cn1 [Example N6] the IC50 was 30 nM.
With CC(C)Oc1cc2c(-c3cc(N(C)Cc4cccnc4)ncn3)n[nH]c2cn1 [Example N7] the IC50 was 180 nM.
With COCCN(C)c1cc(-c2n[nH]c3cnc(OC(C)C)cc23)ncn1 [Example N8] the IC50 was 223 nM.
CC(C)Oc1cc2c(-c3cc(N4CC(S(C)(=O)=O)C4)ncn3)n[nH]c2cn1 [Example N9] showed an IC50 of 65 nM.
Molecule CC(C)Oc1cc2c(-c3cc(N4C[C@H](O)[C@@H](N(C)C)C4)ncn3)n[nH]c2cn1 [Example N10] has an IC50 of 69 nM.
For CO[C@H]1CN(c2cc(-c3n[nH]c4cnc(OC(C)C)cc34)ncn2)C[C@@H]1O [Example N11], the IC50 was 150 nM.
CC(C)Oc1cc2c(-c3cc(N4CCO[C@H](C)C4)ncn3)n[nH]c2cn1 [Example N12] gave an IC50 of 32 nM.
Work on CC(C)Oc1cc2c(-c3cc(N4CCO[C@@H](C)C4)ncn3)n[nH]c2cn1 [Example N13] yielded an IC50 of 62 nM.
CC(C)Oc1cc2c(-c3cc(N4CCC(n5cncn5)CC4)ncn3)n[nH]c2cn1 [Example N14] showed an IC50 of 41 nM.
Molecule CC(C)Oc1cc2c(-c3cc(N4CCC[S+]([O-])CC4)ncn3)n[nH]c2cn1 (centres unmarked) [Example N15] has an IC50 of 1260 nM.
With CC(C)Oc1cc2c(-c3cc(N4CC[S+]([O-])CC4)ncn3)n[nH]c2cn1 [Example N17] the IC50 was 129 nM.
With CC(C)Oc1cc2c(-c3cc(N4CCC(F)(F)CC4)ncn3)n[nH]c2cn1 [Example N18] the IC50 was 71 nM.
CC(C)Oc1cc2c(-c3cc(N4CC(F)(F)C4)ncn3)n[nH]c2cn1 [Example N19] gave an IC50 of 111 nM.
CC(C)Oc1cc2c(-c3cc(N4CC(n5cnnc5)C4)ncn3)n[nH]c2cn1 [Example N20] was tested, and the IC50 was 201 nM.
For CC(C)Oc1cc2c(-c3cc(N4CCN(c5ccncn5)CC4)ncn3)n[nH]c2cn1 [Example N21], the IC50 was 69 nM.
CO[C@H]1CCN(c2cc(-c3n[nH]c4cnc(OC(C)C)cc34)ncn2)C1 [Example N22] was tested, and the IC50 was 95 nM.
In the case of CC(C)Oc1cc2c(-c3cc(N4CCCC4)ncn3)n[nH]c2cn1 [Example N23], the IC50 is reported as 102 nM.
COC(C)CN(C)c1cc(-c2n[nH]c3cnc(OC(C)C)cc23)ncn1 (centres unmarked) [Example N24] showed an IC50 of 62 nM.
CC(C)Oc1cc2c(-c3cc(N4CC[C@@H](F)C4)ncn3)n[nH]c2cn1 [Example N25] was tested, and the IC50 was 365 nM.
With CC(C)Oc1cc2c(-c3cc(N4CC[C@H](F)C4)ncn3)n[nH]c2cn1 [Example N26] the IC50 was 34 nM.

Reference: patent US9718818B2, “Compounds inhibiting leucine-rich repeat kinase enzyme activity” (MERCK SHARP & DOHME CORP., priority 2013, dated 2017)
